{"source": "PubChem BioAssay AID1956", "about": "(SRMLSC, 2009)", "note": "This is one part of the list. Further columns of the screen follow, without active or inactive calls.", "data": [{"assay": "enhancers of HSV replication in host cells, fold increase, host cell viability (AID 1956); note: tested in PC3 cells", "details": "HSV replication augmentation in cells; fold increase: measured here: primary screen fold increase 10 uM, at 10 µM, stronger effect = higher value; viability: measured here: host cell viability series, at 25 µM, stronger effect = lower value", "units": {"viability": "%"}, "values": [{"smiles": "Cc1sc2ncnc(N=Nc3c(O)[nH]c4ccccc34)c2c1C", "fold increase": 1.49, "viability": 96.1}, {"smiles": "O=c1[nH]c2cc(Br)cnc2nc1/C=C(\\O)c1ccc(F)cc1", "fold increase": 2.45, "viability": 90.3}, {"smiles": "COc1cc(C=C(c2nc3ccccc3s2)c2nc3ccccc3s2)ccc1O", "fold increase": 2.36, "viability": 95.7}, {"smiles": "O=C(Cc1cccs1)Nc1nc(-c2cccnc2)cs1", "fold increase": 1.32}, {"smiles": "COc1ccccc1-c1nn2c(C(F)(F)F)nnc2s1", "fold increase": 1.47, "viability": 96.4}, {"smiles": "COc1ccccc1NS(=O)(=O)c1cc([N+](=O)[O-])ccc1N/N=C/c1c(C)[nH]c2ccccc12", "fold increase": 1.56, "viability": 90.9}, {"smiles": "O=C(N/N=C/c1sc(N2CCOCC2)nc1-c1ccccc1)c1cccc(S(=O)(=O)N2CCCC2)c1", "fold increase": 1.47, "viability": 31.1}, {"smiles": "COc1cc(/C=C2\\SC(=S)N(NC(=O)c3ccncc3)C2=O)ccc1O", "fold increase": 8.18, "viability": 96.1}, {"smiles": "COc1ccc(C(=O)/C=C2/Sc3cc4c(cc3N2C)OCO4)cc1", "fold increase": 1.34, "viability": 91.5}, {"smiles": "CN1CCc2c(sc(NC(=O)c3ccc(S(=O)(=O)N4CCc5ccccc54)cc3)c2C(N)=O)C1", "fold increase": 1.38, "viability": 94}, {"smiles": "CCCCCCCCC(=O)N/N=C/c1cccc(Br)c1", "fold increase": 1.47, "viability": 94.2}, {"smiles": "N#Cc1ccc(-c2ccco2)nc1SCC(=O)c1ccc(Cl)cc1", "fold increase": 1.57, "viability": 90}, {"smiles": "COc1cc(OC)c(-c2nn3c(-c4ccco4)nnc3s2)cc1OC", "fold increase": 1.32}, {"smiles": "CCOC(=O)c1c(NC(=S)Nc2cccc(C)c2)sc2c1CC(C)(C)SC2", "fold increase": 1.5, "viability": 103}, {"smiles": "COc1ccc(C(=O)Nn2c(SCC(=O)NCc3ccccc3)nc3ccccc3c2=O)cc1", "fold increase": 1.47, "viability": 102}, {"smiles": "O=C(N/C(=C/c1ccco1)C(=O)N1CCc2ccccc21)c1ccco1", "fold increase": 1.37, "viability": 102}, {"smiles": "O=c1c2ccccc2c(C=Nc2ccccc2O)c(O)n1-c1nccs1", "fold increase": 1.37, "viability": 101}, {"smiles": "Cn1cc(/C=C2\\SC(=S)N(NC(=O)c3cccc(Cl)c3)C2=O)c2ccccc21", "fold increase": 1.62}, {"smiles": "COC(=O)C1=C(C(=O)OC)C(c2cc(Cl)ccc2O)c2sc(=O)[nH]c2S1", "note": "(stereo not drawn)", "fold increase": 1.43, "viability": 98.6}, {"smiles": "Nc1ccc2nc3c(=O)n(C4CCCCC4)c(=O)[nH]c3nc2c1", "fold increase": 17.6}, {"smiles": "COc1ccc2ccccc2c1C(O)c1nccn1C", "note": "(stereo not drawn)", "fold increase": 2.98, "viability": 90.7}, {"smiles": "CC(C)c1ccc(C2C3CSCC=C3C(C#N)=C(N)C2(C#N)C#N)cc1", "note": "(stereo not drawn)", "fold increase": 1.47, "viability": 81.5}, {"smiles": "CCCN1CCN(CCCNC(=O)c2cc3c(=O)n(C)c4ccccc4c3n2C)CC1", "fold increase": 1.48, "viability": 83.2}, {"smiles": "COc1ccc(C2OC34CCCCC3C(C#N)(C#N)C2(C#N)C(=N)O4)cc1", "note": "(stereo not drawn)", "fold increase": 1.33, "viability": 102}, {"smiles": "C/C(=N\\NC(=S)NCc1ccccc1)c1ccco1", "fold increase": 1.32}, {"smiles": "COc1ccc(OC)c(NC(=S)NCCC(c2ccccc2)c2ccccc2)c1", "fold increase": 1.38}, {"smiles": "Cc1ccc(Cn2c(/C=C/c3ccco3)nc3ccccc32)cc1", "fold increase": 1.45, "viability": 72.9}, {"smiles": "CC(=Nc1ccccc1)c1sc2ccccc2c1O", "fold increase": 1.75, "viability": 94.4}, {"smiles": "O=C1c2ccccc2-c2cccc(NS(=O)(=O)c3ccc(C(F)(F)F)cc3)c21", "fold increase": 1.79, "viability": 103}, {"smiles": "CC(=O)Cc1cc(O)c2ccccc2c1OC(=O)c1ccccc1", "fold increase": 1.59, "viability": 73}, {"smiles": "Cc1nc2cc(NC(=O)CSc3nc4c(C)cccc4cc3C#N)ccc2s1", "fold increase": 2.33, "viability": 70}, {"smiles": "CC(C)=CCN1CCN(Cc2cnc(N3CCOCC3)s2)CC1CCO", "note": "(stereo not drawn)", "fold increase": 1.46, "viability": 102}, {"smiles": "CCCNC(=O)Cn1c(=O)/c(=C\\c2ccc(-c3ccc([N+](=O)[O-])cc3)o2)s/c1=C\\C(=O)C(C)(C)C", "fold increase": 6.98, "viability": 83.3}, {"smiles": "CN(C)c1ccc(/C=C/C(=O)c2cc(Cl)ccc2O)cc1", "fold increase": 2.47}, {"smiles": "O=C(Nc1ccon1)C(Sc1ccccc1)c1ccccc1", "note": "(stereo not drawn)", "fold increase": 1.32, "viability": 93}, {"smiles": "CCN1/C(=C/c2ccc3cc(C)cc(C)c3[n+]2CC)Sc2cc(C)ccc21", "fold increase": 7.87, "viability": 9.29}, {"smiles": "CCOc1ccc(NC(=O)CSc2nnc(Cn3c(=O)sc4ccccc43)n2C)cc1", "fold increase": 1.35, "viability": 93.3}, {"smiles": "Cc1ccc(-c2nc(CSCC(=O)N3CCN(c4ccccn4)CC3)c(C)o2)cc1", "fold increase": 1.45, "viability": 30.4}, {"smiles": "N=c1n(Cc2ccccc2)c2ccccc2n1CC(O)c1ccco1", "note": "(stereo not drawn)", "fold increase": 1.54, "viability": 91.5}, {"smiles": "CCSc1nc(C)c(C)c(=O)[nH]1", "fold increase": 1.32}, {"smiles": "CN1CCN(C=Nc2nc3ccccc3nc2N2CCCC2)CC1", "fold increase": 1.32}, {"smiles": "COc1ccc(C2C(C#N)=C(N)N(c3sc4c(c3C#N)CCCC4)C3=C2C(=O)CC(C)(C)C3)cc1", "note": "(stereo not drawn)", "fold increase": 1.7, "viability": 75.6}, {"smiles": "CCc1ccc(S(=O)(=O)/N=C2/C=C(Sc3ncn[nH]3)C(=O)c3ccccc32)cc1", "fold increase": 1.34, "viability": 12.3}, {"smiles": "Cc1ccc(C)c(NC(=S)NCc2ccc3c(c2)OCO3)c1", "fold increase": 1.15}, {"smiles": "O=C(N/N=C/c1cc(Cl)cc(Cl)c1O)c1ccncc1", "fold increase": 1.34}, {"smiles": "CCCn1nc(-c2ccccc2)c2nc3ccccc3nc21", "fold increase": 1.39, "viability": 94.3}, {"smiles": "S=c1[nH]nc(-c2ccc3ccccc3n2)n1-c1ccc(Cl)cc1", "fold increase": 1.48, "viability": 88.1}, {"smiles": "CN1CCN(C(=O)c2ccc3c(c2)N(Cc2cccc(Cl)c2)C(=O)c2ccccc2S3=O)CC1", "note": "(stereo not drawn)", "fold increase": 1.35, "viability": 94}, {"smiles": "CCOC(=O)CSc1nnc(CNC(=O)Cc2ccccc2)n1C", "fold increase": 1.49, "viability": 93.9}, {"smiles": "CCC(C)(C)NC(=O)C(c1ccc(C)o1)N(Cc1cccs1)C(=O)Cn1nnc2ccccc21", "note": "(stereo not drawn)", "fold increase": 1.15}, {"smiles": "CC[n+]1c(C=C2C=C(C)OC(C)=C2)sc2ccccc21", "fold increase": 1.79, "viability": 48.2}, {"smiles": "CCN1/C(=N\\N)c2cccc3cccc1c23", "fold increase": 1.74, "viability": 99}, {"smiles": "N#Cc1ccc(/C=C(\\C(=O)C(=O)O)c2ccc3ccccc3n2)cc1", "fold increase": 2.68, "viability": 95.4}, {"smiles": "CCN1C(=O)/C(=C/C=C2/CCCN2C)OC1=S", "fold increase": 1.61, "viability": 95}, {"smiles": "COc1ccc(N(CC(=O)NCCSC(C)(C)C)S(C)(=O)=O)c(OC)c1", "fold increase": 1.42, "viability": 94.6}, {"smiles": "N#C/C(=C\\C1=C(N2CCOCC2)C(=C/c2cccc([N+](=O)[O-])c2)/CC1)C(=O)Nc1ccccc1F", "fold increase": 1.64, "viability": 88.8}, {"smiles": "CCOc1ccc(NC(=S)N(CC)Cc2ccccc2)cc1", "fold increase": 1.41, "viability": 101}, {"smiles": "Cc1ccsc1C1NC(=O)c2c(sc3c2CCN(C)C3)N1", "note": "(stereo not drawn)", "fold increase": 1.37, "viability": 94.5}, {"smiles": "CN1CCN(C(=S)NCCc2ccccc2)CC1", "fold increase": 1.41, "viability": 94}, {"smiles": "COc1ccc(-n2c(O)c(/C=N/NS(=O)(=O)c3ccc(C)cc3)c3ccccc3c2=O)cc1OC", "fold increase": 2.6, "viability": 98.5}]}]}
